According to the antibiotic and cytotoxicity screens of Wong et al. (2023):
The list shows a part of the results.

Columns and labels:
[1] = tested on: HSkMC (human skeletal muscle cells); experiment: cytotoxicity call (relative viability < 0.9); details: 10 µM
[2] = tested on: HepG2; experiment: cytotoxicity call (relative viability < 0.9); details: 10 µM
[3] = tested on: S. aureus RN4220; experiment: growth inhibition call (relative growth <= 0.2); details: 50 µM

| Structure (SMILES) | cytotoxicity call [1] | cytotoxicity call [2] | growth inhibition call [3] |
| --- | --- | --- | --- |
| CN1C(=O)c2cc(NS(=O)(=O)c3ccc(F)cc3)ccc2OC[C@H]2O[C@@H](CC(=O)Nc3cccc4ccccc34)CC[C@@H]21 | inactive | inactive | inactive |
| Cc1noc(C)c1S(=O)(=O)N(C)C[C@@H]1Oc2ccc(NC(=O)Cn3cnnn3)cc2C(=O)N([C@@H](C)CO)C[C@@H]1C | inactive | inactive | inactive |
| CC(=O)OC1CC2C(C)(C)C=CCC2(C)C2CCC3(C)C(c4ccoc4)OC(=O)C4OC43C12C (stereo not drawn) | inactive | inactive | inactive |
| C[C@@H]1CN([C@H](C)CO)C(=O)c2cc(NC(=O)Nc3ccccc3)ccc2O[C@@H]1CN(C)C(=O)Nc1ccc(C(F)(F)F)cc1 | inactive | inactive | inactive |
| O=C(NO)c1ccc(-c2cn(CC(=O)N3CCOCC3)nn2)s1 | inactive | inactive | inactive |
| COCC(=O)N[C@H]1C=C[C@H](CC(=O)N2CCCCC2)O[C@H]1CO | inactive | inactive | inactive |
| Cc1noc(C)c1NC(=O)Nc1ccc2c(c1)C(=O)N([C@H](C)CO)C[C@H](C)[C@@H](CN(C)C(=O)Nc1cccc3ccccc13)OCCCC[C@H](C)O2 | inactive | inactive | inactive |
| C[C@H]1CN([C@@H](C)CO)C(=O)c2cccc(NC(=O)c3cnccn3)c2O[C@H]1CN(C)S(=O)(=O)c1ccccc1 | inactive | inactive | inactive |
| C[C@H]1CN([C@@H](C)CO)C(=O)Cc2cc(NC(=O)Nc3ccc(Cl)c(Cl)c3)ccc2O[C@H]1CN(C)S(=O)(=O)c1ccc(Cl)cc1 | active | active | inactive |
| COc1ccc(S(=O)(=O)Nc2ccc3c(c2)C(=O)N([C@H](C)CO)C[C@@H](C)[C@H](CN(C)S(=O)(=O)c2ccccc2)O3)cc1 | inactive | inactive | inactive |
| COc1ccc(S(=O)(=O)Nc2ccc3c(c2)C(=O)N([C@@H](C)CO)C[C@@H](C)[C@@H](CN(C)C(=O)NC2CCCCC2)OCCCC[C@@H](C)O3)cc1 | inactive | inactive | inactive |
| O=C(C[C@H]1C=C[C@@H](NC(=O)c2cnccn2)[C@@H](CO)O1)NCc1ccccc1F | inactive | inactive | inactive |
| Cc1[nH]c(=O)[nH]c(=O)c1S(=O)(=O)N1CCC[C@H](C(=O)NCCc2c[nH]c3ccc(F)cc23)C1 | inactive | inactive | inactive |
| Cc1noc(C)c1S(=O)(=O)Nc1ccc2c(c1)CC(=O)N([C@H](C)CO)C[C@@H](C)[C@H](CN(C)Cc1ccncc1)O2 | inactive | inactive | inactive |
| NC(=O)N1C(=O)[C@H]2[C@H](C1=O)[C@H]1C=C(CCCO)[C@@H]2[C@@H](C2CC2)N1Cc1cc2c(cc1Br)OCO2 | inactive | inactive | inactive |
| CO[C@@H]1CN(C)C(=O)c2ccc(NC(=O)Nc3ccc4c(c3)OCO4)cc2OC[C@@H](C)N(C(C)=O)C[C@H]1C | inactive | inactive | inactive |
| CO[C@@H]1CN(C)C(=O)c2cc(NC(=O)CC(F)(F)F)ccc2OC[C@H](C)N(S(=O)(=O)c2cn(C)cn2)C[C@@H]1C | inactive | inactive | inactive |
| COc1ccc(S(=O)(=O)N(C)C[C@H]2Oc3cc(C#CC4CCCC4)ccc3S(=O)(=O)N([C@@H](C)CO)C[C@H]2C)cc1 | inactive | inactive | inactive |
| O=C(C[C@@H]1CC[C@H]2[C@@H](COC[C@@H](O)CN2S(=O)(=O)c2ccc(F)cc2)O1)N[C@H]1CCN(Cc2ccccc2)C1 | inactive | inactive | inactive |
| COc1cccc(S(=O)(=O)N2C[C@@H](O)COC[C@H]3O[C@H](CC(=O)N4CCOCC4)CC[C@@H]32)c1 | inactive | inactive | inactive |
| Cc1ccc(Nc2c(F)cccc2Cl)c(CC(=O)O)c1 | inactive | inactive | inactive |
| C[C@@H]1CN([C@H](C)CO)C(=O)Cc2cc(NC(=O)Cc3ccccc3)ccc2O[C@H]1CN(C)C(=O)Nc1cccc2ccccc12 | inactive | inactive | inactive |
| c1cc(-c2nnc(Cn3cncn3)[nH]2)ccn1 | inactive | inactive | inactive |
| O=C(CN1CCOCC1)NCC[C@H]1CC[C@H](NC(=O)Cc2ccccn2)[C@@H](CO)O1 | inactive | inactive | inactive |
| C[C@H](CO)N1C[C@H](C)[C@@H](CN(C)C(=O)C2CCOCC2)Oc2cc(-c3ccc(C(=O)N(C)C)cc3)ccc2S1(=O)=O | inactive | inactive | inactive |
| C[C@@H]1CCCCO[C@H](CN(C)C(=O)Nc2ccc(F)cc2)[C@@H](C)CN([C@H](C)CO)C(=O)c2cc(NS(=O)(=O)c3ccccc3)ccc2O1 | inactive | inactive | inactive |
